Results taken from the supplement of paper PMC3334620.
The full ranking holds about 33,000 sequences; the median of “E-score (-0.5 to 0.5)” is about -0.04, and the highest 2% start at about 0.36. The list shows a part of the results.

Each sequence was assayed against T1, Hmlalpha2 (UniProt P0CY09) (assay: PBM E-score (8-mer binding enrichment) (E-score (-0.5 to 0.5)); higher = stronger / more preferred TF binding; most listed sequences are background and not binding sites). Conditions: protein concentration: 200 nM; construct: GST-full length.
T1 sequence: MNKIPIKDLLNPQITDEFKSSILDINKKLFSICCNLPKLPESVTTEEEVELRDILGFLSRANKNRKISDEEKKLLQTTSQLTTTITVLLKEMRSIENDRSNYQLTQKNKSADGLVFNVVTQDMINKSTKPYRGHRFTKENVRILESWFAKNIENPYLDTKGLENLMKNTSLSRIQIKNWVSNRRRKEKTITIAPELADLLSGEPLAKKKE
In short: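 The E-score, a modified Wilcoxon-Mann-Whitney statistic, was computed by the Universal PBM Analysis Suite for every ungapped eight-base word pooled with its reverse complement. Scans behind it were normalised with masliner after bound GST-tagged yeast transcription factors were detected with fluorescent anti-GST. The proteins, at about 100-200 nM, had been applied to universal all-10-mer Agilent arrays made double-stranded by primer extension.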

| Sequence | PBM E-score |
| --- | --- |
| AAGTAGCT | 0.0166 |
| CTGTTTCC | -0.11 |
| AGTTAGAG | -0.207 |
| CACGTGCC | 0.101 |
| CCAAGCAA | -0.0774 |
| AGACTCTG | -0.0718 |
| AAAAATGT | 0.146 |
| GCCATAGC | 0.00227 |
| CCTGTAAC | 0.093 |
| AAATCATC | -0.0814 |
| AGGAAATC | -0.0186 |
| ACGTTGCG | 0.0728 |
| CCACAAAA | 0.0522 |
| CCCAACAC | 0.113 |
| ACTATAAT | 0.15 |
| CACTATGA | -0.0782 |
| ATCAAACG | 0.0386 |
| GCGATCGA | -0.00251 |
| ACTTCGGC | -0.151 |
| ATTGAAAA | 0.116 |
| GCTAATTA | 0.183 |
| ATCCCGAT | -0.152 |
| ACCCTTCC | -0.197 |
| CAGATTCA | 0.0122 |
| GATTCTGC | 0.0533 |

| Sequence | PBM E-score |
| --- | --- |
| GTGGTAAA | 0.215 |
| ACCGTGCA | 0.0448 |
| CCAACTAA | 0.00974 |
| AACATCTA | 0.178 |
| CCAGAATA | 0.146 |
| AAAAACTC | 0.121 |
| CCACTTCA | -0.0825 |
| CACGGTCC | -0.0755 |
| ATTACTGC | 0.146 |
| GTAGAGAA | 0.0859 |
| AGCTCCCA | -0.128 |
| CGGTTTAA | 0.151 |
| CGTTAGGA | 0.0405 |
| ACGCCCAT | -0.152 |
| CACTATTA | 0.00891 |
| CATCAGAC | 0.0141 |
| CGATATTA | 0.17 |
| ACCCATGG | -0.19 |
| GCAGAAAA | 0.022 |
| CCATGAGG | -0.313 |
| CGGAAGAC | 0.0635 |
| CTTTAGCA | 0.0763 |
| GCCTTAAA | -0.0607 |
| AAGTTGGA | 0.147 |
| ACATGTGG | 0.312 |

| Sequence | PBM E-score |
| --- | --- |
| CGCGGCCC | -0.135 |
| GAGCTGAC | 0.0032 |
| CTTTCATC | -0.277 |
| TCATACGA | 0.0853 |
| AGCTTCGA | -0.0162 |
| AGGATTCG | -0.204 |
| CATGAGTA | 0.0464 |
| TCTGGACA | 0.106 |
| ACTGTCTC | -0.116 |
| ACTTAAGT | 0.129 |
| ATTGTGCG | -0.182 |
| ACAGAGCG | -0.0568 |
| GAGGGGAC | -0.247 |
| CATTACCG | 0.0899 |
| CGATTAAC | 0.149 |
| ACACATCA | 0.183 |
| ACAGACCG | -0.0549 |
| CCCGTCTA | -0.0269 |
| AATGGCAG | -0.113 |
| ACATAACA | 0.434 |
| AGGTGACA | -0.0537 |
| ATGCCTTA | 0.0144 |
| ATATTTGA | -0.0277 |
| AGTCACCA | -0.307 |
| AATCATGT | 0.409 |

| Sequence | PBM E-score |
| --- | --- |
| GGTCCTCA | -0.147 |
| GCCCATGA | -0.165 |
| GCACGCCC | -0.0771 |
| GAGTTTGC | -0.105 |
| CACTTAAG | 0.23 |
| ACGGCCCT | -0.0414 |
| ATGGTGCG | -0.0621 |
| CTAAGCTC | -0.0168 |
| CTCAACAG | 0.0165 |
| CTATCTTA | -0.0412 |
| GCTAAATA | 0.199 |
| CCGGGTGC | -0.315 |
| CAAATGTA | 0.35 |
| CCGACCCG | -0.21 |
| GACGATTA | 0.15 |
| GGAGTTAC | 0.00707 |
| AATCACAC | 0.274 |
| CACCCCGG | -0.197 |
| GAAGACGC | -0.11 |
| AGGTTACT | -0.0215 |
| CAGCGGAA | -0.0993 |
| GTCAGAAC | -0.0822 |
| CAATATCA | 0.0195 |
| ACCCGGGA | -0.0806 |
| GCGGAGTA | -0.109 |

| Sequence | PBM E-score |
| --- | --- |
| CACAATCG | 0.0223 |
| CCGCTAAC | -0.116 |
| GAAACAGC | -0.195 |
| TAGGCGCA | -0.225 |
| CCATGGCA | -0.178 |
| CCTGCTAC | -0.0531 |
| ACAGAACA | 0.227 |
| ACTCCGCA | -0.162 |
| AATGGGCC | -0.229 |
| ATCACAGC | 0.0989 |
| CCCTGATC | -0.332 |
| CGAGAAGC | -0.189 |
| CCCATCAC | -0.00452 |
| ACCGGTCG | -0.156 |
| CTGTCATA | 0.126 |
| GAGGCACA | -0.223 |
| AGGAGGCG | -0.247 |
| TAAGCGTA | 0.0965 |
| CGCGGTTC | 0.0441 |
| AGGGGCTC | -0.235 |
| GCCCAGTA | -0.0698 |
| TACCCTCA | -0.219 |
| GTTACAAA | 0.303 |
| AAGGTACC | -0.181 |
| CCAGCGCA | -0.209 |

| Sequence | PBM E-score |
| --- | --- |
| CCTCTTCC | -0.376 |
| ACTTGTAC | 0.12 |
| GACGAACC | -0.14 |
| ATGGTAGC | -0.037 |
| ACAGTGAG | -0.0397 |
| ACCGGCAC | 0.0874 |
| CTTAGACC | 0.0601 |
| GCTCACTA | -0.0311 |
| CCTTCCAC | -0.228 |
| CTTAGCTC | -0.112 |
| GGGCATTA | -0.0316 |
| AATTACCT | 0.213 |
| AAAATCTT | 0.0527 |
| AGAGGGAG | -0.249 |
| TGACCCCA | -0.157 |
| ACGGGCTG | -0.209 |
| AGTTAACG | 0.248 |
| GGCTAGCC | -0.5 |
| TCGGTAGA | -0.0018 |
| CAGTCTAA | -0.0759 |
| GTCGTTTA | 0.193 |
| CAGGTAGA | -0.00202 |
| CTTCCATA | -0.184 |
| CAGGAAGG | -0.148 |
| AGATGATG | -0.0579 |

| Sequence | PBM E-score |
| --- | --- |
| ACCCCAGT | -0.103 |
| GGCCGTTA | -0.159 |
| GGGGGGCA | -0.328 |
| AAGCTCCT | -0.106 |
| AAAAATCG | -0.141 |
| AAACGGGA | -0.169 |
| GTGCAGGA | 0.0252 |
| AAGTTCCG | -0.0355 |
| TACTGAGA | -0.0602 |
| ACTTCTTA | 0.106 |
| GCCCCGAA | -0.234 |
| CTATGATA | -0.0313 |
| CAGCTCTA | -0.174 |
| AAAGCAGG | 0.0392 |
| GGTTGGTA | 0.114 |
| GCATCCCA | -0.287 |
| CATGGGGG | -0.261 |
| TGCCGGCA | 0.135 |
| CAGCGCGA | -0.14 |
| AGCGATCA | -0.0427 |
| GGAGTAAC | -0.237 |
| GGTCTCTA | -0.281 |
| AGCATAGC | 0.0169 |
| CGCTACCG | -0.0865 |
| CATTGCGG | -0.0412 |

| Sequence | PBM E-score |
| --- | --- |
| CTGTGTGA | 0.247 |
| AACGACCT | -0.123 |
| TTCATGAA | -0.00198 |
| GCGTGTGA | 0.284 |
| CGCTTATC | -0.0319 |
| ACAACCTC | 0.12 |
| ACCCGTAG | -0.317 |
| CAGGGGCG | -0.0915 |
| ATCGCAAG | -0.145 |
| GGTGTACA | 0.211 |
| CTAAAGTA | -0.051 |
| CCAGTAAC | -0.0298 |
| AACGCCTC | -0.1 |
| ATTGCCGA | 0.0146 |
| CTATATAG | 0.0815 |
| AGCCTGCA | -0.161 |
| CCAATTTA | 0.198 |
| CTTCCCCA | -0.246 |
| AGAATGGA | -0.0999 |
| GTTATATA | 0.217 |
| CCGCGCGA | -0.0227 |
| TGTACGAA | 0.185 |
| ATCAACTC | 0.104 |
| CTCGAGAC | 0.0127 |
| CGGGGCGA | -0.21 |

| Sequence | PBM E-score |
| --- | --- |
| AGTACGAT | -0.051 |
| CAGTAGGC | -0.119 |
| AACCCAAG | -0.0823 |
| AAGCGGCA | -0.118 |
| GAAGCAAA | 0.156 |
| AAGTTGCA | 0.109 |
| GGGGCCCC | -0.341 |
| CTTCCGAC | -0.0469 |
| GTTTCGTA | 0.171 |
| ACCAACTC | -0.0318 |
| ACGCCAGT | -0.0593 |
| AGTCTAAA | -0.0738 |
| CTTATACC | -0.0361 |
| CCAGAAAC | -0.0471 |
| ACCTCCGT | 0.0706 |
| GTACGTTA | 0.294 |
| CACTTAAC | 0.189 |
| ACAATCAG | 0.00817 |
| GGGTCTTA | -0.214 |
